Results on 85 compounds are retold here after ChEMBL document CHEMBL4888484, “Replenishing the malaria drug discovery pipeline: Screening and hit evaluation of the MMV Hit Generation Library 1 (HGL1) against asexual blood stage Plasmodium falciparum ,using a nano luciferase reporter read-out” (2022).

SMILES strings stand for the structures. Hit rate of the full screen: of about 150,000 compounds, about 540 (0.36%) showed an effect of 50% or more. The list shows a part of the results.

The test system of this test is Plasmodium falciparum. The test can be described thus: Primary screen in NF54 nanoGlo assay, in single point, at 2uM, 72h; a lower Z score goes with more inhibition. It is filed as functional, Erythrocyte. The following applies: timepoint 72 hour.
Consider `COc1cc([C@@H]2c3nc[nH]c3CCN2Cc2nc3ccccc3[nH]2)ccc1O`, for which the “% Inhibition” value was -6% and the Z score worked out at 0.63.
For `CCOC(=O)CCN(C)C(=O)[C@@H]1CCCCC(=O)N1`, the “% Inhibition” value is on record as -20% and the Z score is 2.56.
With `CC(C)CCn1c(N2CCC[C@H](C(=O)NCc3cccnc3)C2)nc2ccccc21`, the “% Inhibition” value is -1% and the Z score was found to be 0.07.
For `COc1c[nH]c(C(=O)NCc2cc(C(C)C)on2)cc1=O`, in that order: 2% and -0.4.
In the same order, the values of `CCOCCO[C@@H](C)C(=O)NCCNC(=O)Cc1ccccc1` are 1% and -0.09.
For the compound `O=C(Cc1nc(Cc2ccccc2F)n[nH]1)Nc1ccc(Cl)cc1`, the “% Inhibition” value was -11% and the Z score came out at 1.4.
As for `CC(C)(C#N)CC(=O)NC1CCC(c2ccc(F)cc2)C1` (stereo not given), the “% Inhibition” value was determined as 8% and the Z score is reported as -0.79.
As for `CNC(=O)[C@H]1C[C@H](Oc2ccccc2)CN1Cc1cccn1C`, the “% Inhibition” value is recorded as -9% and the Z score is given as 1.7.
In the same order, the values of `COCc1nc([C@@H]2CCCCCN2S(=O)(=O)c2ccccc2)no1` are -5% and 0.6.
For `C[C@@H](CCc1ccco1)Nc1nc(-c2ccn(C)n2)no1`, the “% Inhibition” value is reported as -16% and the Z score is 3.14.
In the same order, the values of `CN(C(=O)CC[C@H](N)c1ccccc1)c1ccc(F)cc1` are -4% and 0.69.
In the case of `O=S1(=O)CC[C@H](CNc2ncnc3c2Cc2ccccc2OC3)C1`, the “% Inhibition” value is on record as -3% and the Z score was found to be 0.26.
In the same order, the values of `CCCc1noc(CN(C)C(=O)NCc2noc(-c3ccco3)n2)n1` are -2% and 0.36.
For `CC[C@H](NC(=O)c1cc(Cn2ccc3ccccc32)[nH]n1)c1ncccc1C`, in that order: -2% and 0.44.
In the same order, the values of `Cc1noc(C)c1NC(=O)N[C@@H](C)C(C)C` are -5% and 0.96.
For the compound `COc1ccc(NC(=O)C(=O)NCCN2CCC(O)CC2)c(OC)c1`, the “% Inhibition” value is reported as -11% and the Z score is reported as 1.54.
In the same order, the values of `Cc1nc(C)c(C(=O)N2CCCO2)s1` are 8% and -1.3.
In the same order, the values of `Cc1nnc(CN2CCN(Cc3ccccc3)C(=O)C2(C)C)s1` are -1% and 0.17.
For `O=C(CN1CCOC1=O)N[C@@H]1COCC[C@@H]1OCc1ccccc1`, in that order: -3% and 0.39.
In the case of `CC1(NC(=O)[C@H](CC(N)=O)NC(=O)Cc2cccc(F)c2)CCCC1`, the “% Inhibition” value is given as 2% and the Z score was -0.36.
In the same order, the values of `O=C(OCCN1CCCC1=O)c1cccc(Cl)c1` are -2% and 0.23.
Take `CCOC(=O)[C@H](Cc1ccccc1)NC`: the “% Inhibition” value was -2% and the Z score worked out at 0.26.
In the same order, the values of `CCOC(=O)c1c(C)[nH]c(CCC(=O)NCc2ccc(F)cc2)c1C` are 2% and -0.46.
As to `CC(C)c1cc(C(=O)N2CCN(c3nnc(C(F)(F)F)s3)CC2)nc(N)n1`, the “% Inhibition” value is reported as -6% and the Z score is listed as 0.78.
In the same order, the values of `Cn1nc(N)c2c(C#N)c3c(nc21)CCCC3` are -1% and 0.17.
In the same order, the values of `COc1ccc(O)cc1CN1CCN(C(C)=O)[C@H]2CS(=O)(=O)C[C@H]21` are -1% and 0.2.
In the same order, the values of `O=C(NCc1nccnc1-c1ccco1)c1cscn1` are 13% and -1.7.
With `CN1CCC(Cc2nc(C3(c4ccccc4)CCCC3)n(CCO)n2)CC1`, the “% Inhibition” value is on record as -7% and the Z score is on record as 0.82.
In the same order, the values of `COCC1(C)CCN(S(=O)(=O)c2cc(C(N)=O)n(C)c2)CC1` are -3% and 0.48.
In the same order, the values of `NC(=O)C[C@H](NCC(F)(F)F)C1CCOCC1` are -5% and 0.53.
In the same order, the values of `CCN(CC(N)=O)C(=O)[C@H]1CCCC(F)(F)C1` are -9% and 1.11.
Regarding `Cc1cncc(C(=O)N2CC[C@H](OCCCc3ccccc3)C2)c1`, the “% Inhibition” value was determined as 6% and the Z score was -1.1.
In the same order, the values of `Cc1ncc([C@H](C)NCCCc2nc3c(s2)CCCC3)c(C)n1` are -8% and 1.1.
In the same order, the values of `Cc1cncn(CCNS(=O)(=O)Cc2cc(F)ccc2F)c1=O` are -3% and 0.56.
For `c1cc(-c2ccco2)cc(-c2nccn2CCc2cnccn2)c1`, in that order: -22% and 1.97.
Regarding `O=C(c1cnn2c1OCCC2)N1CCC[C@H](Oc2ncc(F)cn2)C1`, the “% Inhibition” value turned out to be 1% and the Z score was -0.19.
With `CC1=NS(=O)(=O)N(C)C=C1C(=O)Nc1ccccc1C(F)(F)F`, the “% Inhibition” value was -15% and the Z score is recorded as 1.67.
In the same order, the values of `CCOc1ccc(CCn2c3c(c(=O)[nH]c2=O)C(C(F)(F)F)(C(F)(F)F)N=C(c2ccncc2)N3)cc1OCC` are 5% and -0.71.
For the compound `OCCN(CCn1cc(Cl)cn1)Cc1ccco1`, the “% Inhibition” value is -13% and the Z score is 2.46.
In the same order, the values of `O=C(c1ccc(O)cc1)N1CCN(Cc2cccnc2)[C@@H]2CS(=O)(=O)C[C@@H]21` are -14% and 2.74.
In the same order, the values of `Cc1ccc(CN(C)C(=O)c2ccc(S(=O)(=O)N3CCOCC3)cc2)o1` are -6% and 0.61.
For `O=C([C@@H](O)Cc1ccccc1)N1CCCC(Cn2cncn2)C1` (stereo not given in full), in that order: -6% and 0.62.
In the case of `O=C(NCc1ccccc1CN1CCOCC1)Nc1nccs1`, the “% Inhibition” value is -6% and the Z score turned out to be 1.01.
Turning to `Cc1ccc(Oc2nc(N3CCC(C)CC3)nc3c2CN(C(=O)Nc2ccccc2)CC3)cc1`, the “% Inhibition” value is -9% and the Z score stood at 1.45.
On to `Cc1n[nH]c(C)c1CNc1ccc(N(C)C(=O)OC(C)(C)C)nc1`, for which the “% Inhibition” value is reported as 4% and the Z score is on record as -0.35.
In the case of `Cc1n[nH]cc1CN(C)C(=O)c1cncc(O)c1`, the “% Inhibition” value is listed as -1% and the Z score is listed as 0.13.
In the same order, the values of `Cc1nc2cc(NC(=O)c3ccc(=O)n(C)n3)ccc2o1` are -13% and 1.65.
As to `O=c1nc(NCCc2ccc(O)cc2)cn[nH]1`, the “% Inhibition” value is -5% and the Z score came out at 0.67.
In the same order, the values of `C[C@H]1CN(c2nnc(-c3nnc[nH]3)n2C)CCN1C(=O)OC(C)(C)C` are 0% and 0.04.
For `CCCN1CC2(CCN(c3nccnc3N(C)C)CC2)C[C@H]1C(=O)O`, in that order: 2% and -0.32.
In the same order, the values of `CCOc1ccccc1-c1nc(-c2cc(C)n(-c3c(C)n(C)n(-c4ccccc4)c3=O)c2C)cs1` are -2% and 0.43.
With `Cc1cccc(N[C@H](c2ccccn2)c2c(C)[nH]c3ccc(NC(=O)c4ccc(F)cc4)cc23)n1`, the “% Inhibition” value came out at 0% and the Z score is -0.06.
Turning to `c1cn([C@@H]2COC[C@@H]2NCc2ccc3cn[nH]c3c2)nn1`, the “% Inhibition” value is reported as -14% and the Z score came to 2.05.
For `CCCCOc1c(OC)cccc1[C@H]1CC(=O)Nc2c1c(C)nn2-c1nc2ccccc2s1`, in that order: -2% and 0.3.
In the same order, the values of `O=C(CCc1cccnc1)N1CCC(c2ccncn2)CC1` are -4% and 0.41.
As for `COc1ccc(C)nc1NC(=O)NC(c1nccn1C)c1nccn1C`, the “% Inhibition” value is -5% and the Z score is listed as 0.92.
As for `COc1cc(-c2cccc(C(=O)N[C@H]3CCNC3=O)c2)cc(OC)c1OC`, the “% Inhibition” value is 0% and the Z score amounted to 0.05.
In the same order, the values of `O=C(CCN1CCOC[C@@H](O)C1)NCc1ccc(F)cc1` are 0% and -0.08.
In the same order, the values of `Cn1ncc(C2CC2)c1C(=O)Nc1cc(C(F)(F)F)n[nH]1` are 0% and -0.01.
In the same order, the values of `CC(C)CN1CCNC(=O)[C@@H]1CC(=O)NCCc1nc(-c2ccccc2)no1` are 3% and -0.37.
Regarding `O=C(NCCNC(=O)c1nc(CCn2ccc3ccccc32)no1)c1ccco1`, the “% Inhibition” value is listed as -15% and the Z score was found to be 1.83.
For `COCCN(C[C@H]1CCCO1)C(=O)c1cccc(-c2ccc3c(c2)CCO3)c1`, in that order: 0% and -0.03.
For `C[C@@H](CN1CCOCC1)NC(=O)N(Cc1ccccc1F)C1CCC1`, in that order: 6% and -0.74.
In the same order, the values of `CS(=O)(=O)N1CCc2cc(NC(=O)Nc3cccc(Cl)c3)ccc21` are 3% and -0.51.
As to `CN(CCNC(=O)c1cc(C#N)cs1)C(=O)c1cc(C#N)cs1`, the “% Inhibition” value is given as -16% and the Z score amounted to 2.12.
For `COCc1cccc(N2C(=O)CC(C3C=C(C)C4C(=O)N(c5cccc(COC)c5)C(=O)C4C3)C2=O)c1` (stereo not given), in that order: -6% and 0.74.
In the same order, the values of `CC(C)(C)OC(=O)N1CCC(C#CC(=O)NCCCCO)CC1` are 7% and -0.6.
For `CCn1nccc1[C@@H]1CCCN1S(=O)(=O)c1cc(OC)ccc1OC`, in that order: -7% and 1.4.
As for `CCc1[nH]nc(-c2cc(OC)c(OC)c(OC)c2)c1NC(=O)C1CCC1`, the “% Inhibition” value was -3% and the Z score came out at 0.65.
For `C[C@@H]1Oc2ccccc2CN(c2cccc(C#N)c2)C1=O`, in that order: -1% and 0.11.
In the same order, the values of `Cc1noc(CCNC(=O)N2CCC[C@H](N(C)C(=O)OC(C)(C)C)C2)n1` are 2% and -0.24.
For `Cc1cc(NC(=O)c2cccc(S(=O)(=O)NC3CC3)c2)no1`, in that order: 37% and -5.04.
For `COc1ccc(Cn2c(N)c(C(=O)NCc3ccc(C)cc3)sc2=S)cc1`, the “% Inhibition” value is recorded as -10% and the Z score stood at 1.54.
In the same order, the values of `CCn1nc2n(c1=O)-c1cc(C)ccc1OC2` are 3% and -0.34.
In the same order, the values of `CC1(CS(=O)(=O)NCCNC(=O)c2ccc(Cl)cc2)CC1` are -15% and 2.
For `COCC(NC(C)c1ncc(C)s1)C(C)C` (stereo not given), in that order: -11% and 1.01.
Take `CN(C)CCN(C)C(=O)CO[C@H](c1ccccc1)C(F)(F)F`: the “% Inhibition” value is recorded as -9% and the Z score was determined as 1.77.
In the same order, the values of `Cc1nn(C(F)F)c(C)c1S(=O)(=O)N1CCNCC1` are -9% and 1.8.
In the same order, the values of `COc1cc(CN2CCC2)ccc1OC[C@@H](O)CN1CCCCCCC1` are -10% and 1.97.
For `CN(Cc1cnn(C)c1)c1c(C#N)cnc2c(F)cc(F)cc12`, in that order: 6% and -0.57.
In the case of `CC1CN(C(=O)c2cccc3cn[nH]c23)CC(C)O1` (stereo not given), the “% Inhibition” value is -2% and the Z score turned out to be 0.33.
In the same order, the values of `Cn1nc(-c2ccccc2)nc1C(=O)N1CCC[C@H]1c1nc2ccccc2s1` are -9% and 1.23.
In the same order, the values of `COc1ccc(S(=O)(=O)N2CC(=O)N(C3CC3)[C@](C)(C(=O)NCc3ccccc3OC)C2)cc1` are -15% and 1.93.
For `COc1ccccc1[C@@H](O)CNC(=O)NCCc1csc(C)n1`, in that order: -17% and 2.15.
With `CC1(C)C(CNC(=O)[C@]2(C)CCCCO2)C1(C)C`, the “% Inhibition” value is -9% and the Z score was 1.21.

In general, % Inhibition refers to the relative decrease from the control value, in per cent.
